Data from PubChem BioAssay AID504333 (National Center for Advancing Translational Sciences (NCATS), 2011).
Hit rate of the full screen: of about 360,000 compounds, about 16,000 (4.4%) were called active. This list was built around the results that the source calls inconclusive (neither active nor inactive); the mix of calls is not that of the screen. Calls come from the whole dose curve; as a rule, active = well fitted inhibition curve with a large enough effect; inconclusive = small, poorly fitted or top-dose-only effect; inactive = no such curve, though single readings can be large or run the other way. A potency beside an inconclusive call is a rough fit, not a confirmed value. More than one record can exist for a structure, and the calls need not agree.

Molecular target: Bromodomain adjacent to zinc finger domain protein 2B (Homo sapiens) (UniProt Q9UIF8)
Sequence of UniProt Q9UIF8 (Q9UIF8 whole entry, looked up, the tested form may be a part): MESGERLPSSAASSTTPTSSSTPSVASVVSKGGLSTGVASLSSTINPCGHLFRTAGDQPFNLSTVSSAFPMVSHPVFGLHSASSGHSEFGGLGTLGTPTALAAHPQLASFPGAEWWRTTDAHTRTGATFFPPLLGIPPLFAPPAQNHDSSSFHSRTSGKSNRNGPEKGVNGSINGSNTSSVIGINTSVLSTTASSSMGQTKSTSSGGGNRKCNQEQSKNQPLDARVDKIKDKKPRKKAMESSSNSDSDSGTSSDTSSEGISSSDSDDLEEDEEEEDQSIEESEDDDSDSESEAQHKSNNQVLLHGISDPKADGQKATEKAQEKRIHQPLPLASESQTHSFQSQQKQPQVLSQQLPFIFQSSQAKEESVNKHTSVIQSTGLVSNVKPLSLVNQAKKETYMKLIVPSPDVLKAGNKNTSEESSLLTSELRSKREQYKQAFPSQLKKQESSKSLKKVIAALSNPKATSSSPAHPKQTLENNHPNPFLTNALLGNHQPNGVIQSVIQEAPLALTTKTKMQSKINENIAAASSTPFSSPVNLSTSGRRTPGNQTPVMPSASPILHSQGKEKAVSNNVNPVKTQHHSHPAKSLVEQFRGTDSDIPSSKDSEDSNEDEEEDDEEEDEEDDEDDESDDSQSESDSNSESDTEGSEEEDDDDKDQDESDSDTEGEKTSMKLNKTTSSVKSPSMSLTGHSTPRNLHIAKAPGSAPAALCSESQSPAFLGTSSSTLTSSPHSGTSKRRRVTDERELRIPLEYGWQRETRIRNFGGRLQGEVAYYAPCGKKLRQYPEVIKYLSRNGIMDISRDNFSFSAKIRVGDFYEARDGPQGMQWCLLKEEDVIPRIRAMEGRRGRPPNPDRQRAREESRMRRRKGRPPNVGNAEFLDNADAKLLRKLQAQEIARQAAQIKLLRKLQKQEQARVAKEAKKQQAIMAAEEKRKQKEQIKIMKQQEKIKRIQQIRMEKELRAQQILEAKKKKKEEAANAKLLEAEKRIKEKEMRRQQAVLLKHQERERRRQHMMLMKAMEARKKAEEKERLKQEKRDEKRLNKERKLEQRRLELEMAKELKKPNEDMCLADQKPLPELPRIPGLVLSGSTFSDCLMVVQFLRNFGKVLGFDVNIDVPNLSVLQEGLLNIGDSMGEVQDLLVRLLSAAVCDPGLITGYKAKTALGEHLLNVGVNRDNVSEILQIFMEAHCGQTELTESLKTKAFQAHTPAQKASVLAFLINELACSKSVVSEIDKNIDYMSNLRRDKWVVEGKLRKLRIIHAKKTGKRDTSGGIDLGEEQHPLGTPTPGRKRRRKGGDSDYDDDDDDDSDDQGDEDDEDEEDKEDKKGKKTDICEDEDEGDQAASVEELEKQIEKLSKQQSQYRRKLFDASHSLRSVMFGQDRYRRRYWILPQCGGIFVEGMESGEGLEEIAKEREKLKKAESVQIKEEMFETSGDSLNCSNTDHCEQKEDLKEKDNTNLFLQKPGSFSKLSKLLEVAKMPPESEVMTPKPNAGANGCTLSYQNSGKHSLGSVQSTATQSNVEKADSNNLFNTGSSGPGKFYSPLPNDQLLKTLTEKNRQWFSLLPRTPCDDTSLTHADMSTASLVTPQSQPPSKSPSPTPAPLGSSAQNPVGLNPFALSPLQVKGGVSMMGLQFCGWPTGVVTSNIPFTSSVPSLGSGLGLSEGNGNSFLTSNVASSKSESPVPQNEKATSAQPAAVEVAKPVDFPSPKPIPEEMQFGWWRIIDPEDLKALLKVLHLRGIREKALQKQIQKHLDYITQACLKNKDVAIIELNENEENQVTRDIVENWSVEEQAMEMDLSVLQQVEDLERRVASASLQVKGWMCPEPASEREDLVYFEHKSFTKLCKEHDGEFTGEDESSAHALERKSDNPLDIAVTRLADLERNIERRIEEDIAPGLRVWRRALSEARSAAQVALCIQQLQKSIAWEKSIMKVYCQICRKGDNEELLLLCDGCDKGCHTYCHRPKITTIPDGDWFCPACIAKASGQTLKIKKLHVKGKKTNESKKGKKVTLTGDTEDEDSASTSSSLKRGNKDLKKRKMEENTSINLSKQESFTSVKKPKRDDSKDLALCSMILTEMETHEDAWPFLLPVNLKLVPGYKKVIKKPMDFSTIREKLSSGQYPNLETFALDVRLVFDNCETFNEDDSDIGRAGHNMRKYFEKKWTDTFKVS
Assay: qHTS Assay for Inhibitors of BAZ2B; note: nearly all actives have a fitted effect of over 60% in size
Conditions: AlphaScreen BAZ2B-H3K14Ac peptide displacement; series mostly up to 114 µM
Procedure, shortened: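 BAZ2B 50 nM plus b-H3(5-23)K14Ac 50 nM, PBS pH 7.4/0.01% Tween-20, 30 min RT; compound added (max 110 uM), 30 min RT; streptavidin donor/Ni-chelate acceptor beads 10 ug/mL final, 20 min dark; AlphaScreen read.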
Potency is the fitted concentration of half-maximal effect; tags give direction and shape of the fitted curve.

SMILES | Potency
Cc1cc(C)nc(SCc2ccc(C(=O)N/N=C/c3ccccn3)cc2)n1 | inactive
S=c1[nH]nc(-c2ccncc2)n1/N=C/C(Cl)=C\c1ccccc1 | active: 50.1 µM
O=C(O)CCc1ccc(-c2ccc(Br)cc2)n1-c1cccc(O)c1 | inconclusive: 50.1 µM [inhibitor, partial curve]
CCN(CC)c1ccc(NC(=O)CN2CCN(S(=O)(=O)c3cc(Cl)ccc3OC)CC2)cc1 | active: 50.1 µM
Cc1nc(-c2coc3cc(C)c(N=O)c(O)c3/c2=N\N)cs1 | inconclusive: 89.1 µM [inhibitor, single point]
Cc1sc2nc(SCC(N)=O)n(-c3ccccc3)c(=O)c2c1C | inactive
COC(=O)C1=C(C)N(Cc2ccccc2)C(=NCCc2cccnc2)N[C@H]1c1ccc(Br)cc1 | active: 56.2 µM
Cc1oc(-c2ccc3c(c2)OCCO3)cc1C(=O)NC(CCC(=O)O)C(=O)O (stereo unspecified) | inconclusive: 89.1 µM [inhibitor, single point]
CCOC(=O)c1ccc(NC2=CC(=O)C(=O)c3ccccc32)cc1 | inconclusive: 79.4 µM [inhibitor, single point]
C#CC(=O)N(c1cc(OC)ccc1OC)C(C(=O)NC1CCCC1)c1cccs1 (stereo unspecified) | inactive
O=C(Nc1cccc(S(=O)(=O)N2CCCCC2)c1)c1ccccn1 | inconclusive: 79.4 µM [inhibitor, partial curve]
Cc1cc(C)nc(NS(=O)(=O)c2ccc(NC(=O)c3nc(SC(C)C)ncc3Cl)cc2)n1 | inactive
COc1ccc(-n2cccc2/C=C/[N+](=O)[O-])cc1 | active: 35.5 µM
CCOC(=O)c1ccc(NC(=O)CC2S/C(=N/N=C3/NC(=O)CS3)NC2=O)cc1 (stereo unspecified) | inactive
O=C(CCN1CCCC1Cc1ccccc1)c1ccc2c(c1)OCCO2 (stereo unspecified) | inconclusive: 100 µM [inhibitor, single point]
CN(C)c1ccc(/C=C(\C#N)c2ccccn2)cc1 | inconclusive: 100 µM [inhibitor, single point]
COc1ccc(OCCSc2nc3ccccc3n2CC(=O)N2CCOCC2)cc1 | inconclusive: 79.4 µM [inhibitor, single point]
CCn1cc(C(=O)O)c(=O)c2cc(F)c(N3CCN(S(=O)(=O)c4ccc(NC(C)=O)cc4)CC3)cc21 | inconclusive: 89.1 µM [inhibitor, single point]
COc1ccc(NC(=O)N(Cc2cc3ccc(OC)cc3[nH]c2=O)CC2CCCO2)cc1 (stereo unspecified) | inconclusive: 79.4 µM [inhibitor, single point]
O=C(COC(=O)c1nc(Cl)ccc1Cl)NNC(=O)c1cccs1 | inactive
COc1ccc(CN(C)CCc2ccccn2)c(OC)c1OC | active: 28.2 µM
COc1ccccc1CNC(=O)CN1C(=O)c2cccnc2Oc2ccccc21 | inactive
CN(C)c1ccc(/C=N/N2CCN(Cc3ccccc3Cl)CC2)cc1 | active: 50.1 µM

SMILES | Potency
Cc1ccc(Oc2nn[nH]n2)cc1 | inconclusive: 100 µM [inhibitor, single point]
COc1ccccc1NC(=O)CC(=O)Nc1ccccc1OC | inactive
CC(C)OC(=O)CN1C(=O)S/C(=C/c2ccc(N3CCCCC3)o2)C1=O | inconclusive: 79.4 µM [inhibitor, single point]
O=C(CS(=O)(=O)c1nc(-c2ccc(Cl)cc2)cn1-c1ccccc1)Nc1ccc(F)cc1F | inconclusive: 25.1 µM [inhibitor, partial curve]
CC(C)(C)OC(=O)N1CC=C2C(C#N)=C(N)C(C#N)(C#N)C(c3cccs3)C2C1 (stereo unspecified) | inactive
Cn1c(=O)n(CCc2ccccc2)c(=O)c2c1nc1n2CCCN1CCc1ccccc1 | inconclusive: 70.8 µM [inhibitor, single point]
Cc1ccc(C)c(N/N=C2\CCCNC2=O)c1 | inconclusive: 89.1 µM [inhibitor, single point]
O=C(c1ccc(Cn2c(=O)[nH]c3ccccc3c2=O)cc1)N1CCN(c2ccccc2)CC1 | inconclusive: 44.7 µM [inhibitor, partial curve]
COc1ccccc1NCCC(=O)OCC(=O)Nc1cccc(S(=O)(=O)N(C)C)c1 | inactive
COc1ccc(/C=C/C(=O)c2ccc(NS(=O)(=O)c3ccc(C)cc3)cc2)cc1O | inconclusive: 79.4 µM [inhibitor, single point]
Cc1ccc(NC(=O)C(Cc2ccccc2)NS(=O)(=O)c2cccs2)cc1Cl (stereo unspecified) | inactive
O=C(c1ccc2ccccc2c1)N1CCN(c2ccc(O)cc2)CC1 | inactive
Cc1cccc(N(C)S(=O)(=O)c2c[nH]c3ccc([N+](=O)[O-])cc23)c1 | inconclusive: 39.8 µM [inhibitor, partial curve]
Clc1ccccc1/C=N/N1CCN(Cc2ccccc2)CC1 | active: 44.7 µM
CC1CCN(c2ccc(NC(=O)c3ccc(Br)o3)cc2)CC1 | inactive
O=C(Nc1ccc(C(=O)N2CCN(c3ccc(F)cc3)CC2)cc1)C1=CSCCO1 | inconclusive: 56.2 µM [inhibitor, partial curve]
C=C(C)CNC(=S)NN=C1c2ccccc2-c2ccccc21 | inconclusive: 25.1 µM [inhibitor, partial curve]
S=c1[nH]cc(-c2ccccc2)n1-c1ccccc1 | inconclusive: 39.8 µM [inhibitor, full curve, poor fit]
COc1ccc(-c2cc(C(F)(F)F)nc(SCCC(=O)Nc3cccc(O)c3)n2)cc1 | inactive
C=CCOc1ccc(/C(O)=C2\C(=O)C(=O)N(CCOC)C2c2cccnc2)cc1 (stereo unspecified) | inconclusive: 89.1 µM [inhibitor, single point]
Cc1cc(C(=O)N/N=C/c2cn[nH]c2-c2ccccc2)cs1 | inconclusive: 89.1 µM [inhibitor, single point]
CC1CCN(C(=O)c2[nH]cnc2C(=O)Nc2ccc(Cl)cc2)CC1 | inconclusive: 89.1 µM [inhibitor, single point]
CCCn1c(NCc2ccco2)nc2c1c(=O)n(C)c(=O)n2C | inconclusive: 89.1 µM [inhibitor, single point]
